No constants are given. Whether binding was seen depends on the method and setting. Binding seen in cells or lysates may run through a third protein. Some entries that bind do so weakly or less than the wild type. For part of these data: Sequences can lack the tags named with a protein.
What was measured:
Assay in all cases: pull-down
[1] = molecular target: His6-MoaD2 (M. bovis MoaD2 with an N-terminal His6-tag) (M. bovis)
[2] = molecular target: T1, His6-CysO (M. bovis CysO with an N-terminal His6-tag) (M. bovis) (UniProt P0A647)
T1 sequence: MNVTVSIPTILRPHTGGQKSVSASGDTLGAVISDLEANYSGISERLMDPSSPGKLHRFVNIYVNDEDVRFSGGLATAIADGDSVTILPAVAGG

[3] = molecular target: His6-MoaD1 (M. bovis MoaD1 with an N-terminal His6-tag) (M. bovis) (UniProt L7N6B4)

Row | Substance | binding [1] | binding [2] | binding [3]
1 | MBP-MoeBR (M. tuberculosis MoeBR with an N-terminal MBP-tag) (from UniProt A5U7D1 1-389) (enzyme) | binds | no binding | binds
2 | MBP-MoeZR (M. tuberculosis MoeZR with an N-terminal MBP-tag) (from UniProt P9WMN7 1-392) (enzyme) | binds | binds | binds

Source: article PMC3227635
